According to PubChem BioAssay (NCATS):
The shares of active, inactive and inconclusive entries below differ from those in the screen. For some of these results: No potency is given beside an inconclusive call; the fits are too rough. Calls of active or inactive are those of the source. Calls come from the whole dose curve; as a rule, active = well fitted curve in the direction sought with a large enough effect; inconclusive = small, poorly fitted or top-dose-only effect, or another doubt; inactive = no such curve, though single readings can be large; an effect the other way counts as inactive or inconclusive.

Tests used:
[1] = qHTS of pediatric cancer cell lines to identify multiple opportunities for drug repurposing: Primary screen for Saos-2 cells (AID 1347097); note: nearly all actives have a fitted effect of over 40% in size
Outline: (§1)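 500-1,000 cells/well; 5 h pre-incubation 37 °C/5% CO2; compound pinned; 48 h; CellTiter-Glo, 15 min RT; luminescence. MIPE 11-pt from 0.78 nM, NPC 8-pt from 0.59 nM final. Bortezomib 2.3 µM final as positive control.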

[2] = qHTS of pediatric cancer cell lines to identify multiple opportunities for drug repurposing: Primary screen for NB1643 cells (AID 1347099); note: nearly all actives have a fitted effect of over 50% in size
Outline: as §1

[3] = qHTS of pediatric cancer cell lines to identify multiple opportunities for drug repurposing: Primary screen for LAN-5 cells (AID 1347100); conditions: LAN-5 neuroblastoma viability, CellTiter-Glo luminescence, 48 h; activity change, negative = cytotoxic: at 46 µM (top of the series)
Outline: (§2)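 Viability after 48 h compound treatment at 37C, 500-1,000 cells/well, read as ATP luminescence with CellTiter-Glo. Primary screens used 11-point (MIPE, 0.78 nM-46 µM) or 8-point (NPC, 0.59 nM-46 µM) final concentrations; follow-up screens used 11-point dilutions.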

[4] = qHTS of pediatric cancer cell lines to identify multiple opportunities for drug repurposing: Primary screen for BT-12 cells (AID 1347101); note: nearly all actives have a fitted effect of over 25% in size
Outline: (§3)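 Cells (500-1,000/well) rested 5 h, then received compounds for 48 h; metabolically active cells were measured by CellTiter-Glo luminescence. Final concentrations spanned up to 46 µM (MIPE, 11-point) or 0.59 nM-46 µM (NPC, 8-point) in primary screens, 11-point in follow-ups.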

[5] = qHTS of pediatric cancer cell lines to identify multiple opportunities for drug repurposing: Primary screen for OHS-50 cells (AID 1347103); note: nearly all actives have a fitted effect of over 40% in size
Outline: as §3

[6] = qHTS of pediatric cancer cell lines to identify multiple opportunities for drug repurposing: Primary screen for RD cells (AID 1347104); note: nearly all actives have a fitted effect of over 55% in size
Outline: as §1

[7] = qHTS of pediatric cancer cell lines to identify multiple opportunities for drug repurposing: Primary screen for Rh18 cells (AID 1347102); conditions: Rh18 rhabdomyosarcoma viability, CellTiter-Glo luminescence, 48 h; activity change, negative = cytotoxic: at 46 µM (top of the series); note: nearly all actives have a fitted effect of over 65% in size
Outline: as §2

[8] = qHTS of pediatric cancer cell lines to identify multiple opportunities for drug repurposing: Primary screen for control Hh wild type fibroblast cells (AID 1347106); note: nearly all actives have a fitted effect of over 55% in size
Outline: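 Cells (500-1,000/well) in growth media were settled 5 h at 37 degrees C, then given compounds for 48 h. Viability was read as CellTiter-Glo luminescence. Primary runs used MIPE at 11 points (0.78 nM-46 µM) and NPC at 8 points (0.59 nM-46 µM); follow-ups used 11 points.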
Potency is the fitted concentration of half-maximal effect; tags give direction and shape of the fitted curve.

Row | SMILES | Potency [1] | Potency [2] | Potency [3] | Potency [4] | Potency [5] | Potency [6] | Potency [7] | Potency [8]
1 | CCc1cc(Nc2nccc(-c3c(-c4ccc(OC)c(C(=O)Nc5c(F)cccc5F)c4)nc4ccccn34)n2)c(OC)cc1N1CCC(N2CCN(S(C)(=O)=O)CC2)CC1 | active: 18.7 µM | inactive | inconclusive [cytotoxic, single point] | inconclusive [cytotoxic, partial curve] | inconclusive [cytotoxic, partial curve] | inconclusive [cytotoxic, partial curve] |  | 
2 | COc1ccc(C2CNC(=O)C2)cc1OC1CCCC1 (stereo not given) | inactive | inconclusive [cytotoxic, partial curve] |  | inactive | inactive |  |  | 
3 | CC(C)Oc1cc(Nc2nc(N[C@@H](C)c3ccc(F)cn3)ncc2Cl)[nH]n1 | active: 5.26 µM | active: 1.48 µM | active: 2.35 µM | inconclusive [cytotoxic, full curve] |  |  |  | 
4 | CCN(CC)CCNC(=O)c1c(C)[nH]c(/C=C2\C(=O)Nc3ccc(F)cc32)c1C | active: 21.1 µM | inconclusive [cytotoxic, partial curve] |  | active: 21.9 µM |  |  | inconclusive [cytotoxic, single point] | 
5 | COc1cc2c(Oc3ccc4[nH]c(C)cc4c3F)ncnc2cc1OCCCN1CCCC1 | active: 29.6 µM | inconclusive [cytotoxic, single point] | active: 20.9 µM | active: 24.3 µM |  | active: 26.4 µM | active: 18.7 µM | active: 26.4 µM
